# Some of the results follow.
# What was measured:
# Test in all cases: glycan array binding signal (z-score within array); higher = stronger binding
# Conditions in all cases: glycan notation: IUPAC condensed, linker removed
# [1] = target: Neu5Ac(a2-8)Neu5Ac(a2-3)[GalNAc(b1-4)]Gal(b1-4)Glc
# How it was run: (§1)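 Glycan array data were curated from 3228 arrays in the Consortium for Functional Glycomics database and kept only where the protein sequence was available. Glycan names were converted to IUPAC-condensed notation, and columns mapping to the same glycan were averaged. The binding signal is a within-array Z-score, averaged across arrays of the same protein sequence at different concentrations or buffers and across linkers. Negative Z-scores can be read as non-binding.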
# [2] = target: Neu5Ac(a2-8)Neu5Ac(a2-8)Neu5Ac
# How it was run: as §1
# [3] = target: Neu5Ac(a2-8)Neu5Ac(a2-8)Neu5Ac(a2-3)Gal(b1-4)Glc
# How it was run: as §1
# [4] = target: Neu5Ac(a2-8)Neu5Ac(a2-8)Neu5Ac(a2-3)[GalNAc(b1-4)]Gal(b1-4)Glc
# How it was run: as §1
# [5] = target: Neu5Ac(a2-8)Neu5Ac(a2-8)Neu5Ac(a2-8)Neu5Ac(a2-3)[GalNAc(b1-4)]Gal(b1-4)Glc
# How it was run: as §1
# Neu5Ac(b1-6)GalNAc = target: Neu5Ac(b1-6)GalNAc
# How it was run: as §1
# [6] = target: Neu5Ac(b2-6)Gal(b1-4)GlcNAc
# How it was run: as §1
# [7] = target: Neu5Ac9Ac(a2-6)Gal(b1-4)GlcNAc
# How it was run: as §1
# [8] = target: Neu5Gc(a2-3)Gal(b1-3)GlcNAc
# How it was run: as §1
# [9] = target: Neu5Gc(a2-3)Gal(b1-3)[Fuc(a1-4)]GlcNAc
# How it was run: as §1
# Neu5Gc(a2-3)Gal(b1-4)Glc = target: Neu5Gc(a2-3)Gal(b1-4)Glc
# How it was run: as §1
# [10] = target: Neu5Gc(a2-3)Gal(b1-4)GlcNAc
# How it was run: as §1
# [11] = target: Neu5Gc(a2-3)Gal(b1-4)[Fuc(a1-3)]GlcNAc
# How it was run: as §1
# [12] = target: Neu5Gc(a2-6)Gal(b1-4)GlcNAc
# How it was run: as §1
# Neu5Gc(a2-6)GalNAc = target: Neu5Gc(a2-6)GalNAc
# How it was run: as §1
binder,measurement,setting,value
"F17dG (Escherichia coli), Q47199 (protein) MTNFYKVFLAVFILVCCNISQAAVSFIGSTENDVGPSPGSYSRTHAMDNLPFVYNTGNNIGYQNANVWRISKGFCVGLDGKVDLPVVGSLDGQSIYGLTEEVGLLIWMGDTNYSRGTAMSGNSWENVFSGWCVGANTASTQGLSVRVTPVILKRNSSARYSVQKTSIGSIRMRPYNGSSAGSVQTTVNFSLNPFTLNDTVTSCRLLTPSAVNVSLAAISAGQLPSSGDEVVAGTTSLKLQCDAGVTVWATLTDATTPSNRSDILTLTGASTATGVGLRIYKNTDSTPLKFGPDSPVKGNENQWQLSTGTETSPSVRLYVKYVNTGEGINPGTVNGISTFTFSYQ",glycan array binding signal (z-score),[1],-0.188
same,glycan array binding signal (z-score),[2],-0.322
same,glycan array binding signal (z-score),[3],-0.315
same,glycan array binding signal (z-score),[4],-0.196
same,glycan array binding signal (z-score),[5],-0.374
same,glycan array binding signal (z-score),Neu5Ac(b1-6)GalNAc,-0.363
same,glycan array binding signal (z-score),[6],-0.161
same,glycan array binding signal (z-score),[7],-0.234
same,glycan array binding signal (z-score),[8],0.454
same,glycan array binding signal (z-score),[9],-0.319
same,glycan array binding signal (z-score),Neu5Gc(a2-3)Gal(b1-4)Glc,-0.327
same,glycan array binding signal (z-score),[10],0.103
same,glycan array binding signal (z-score),[11],-0.355
same,glycan array binding signal (z-score),[12],-0.339
same,glycan array binding signal (z-score),Neu5Gc(a2-6)GalNAc,-0.341
